PubChem BioAssay AID1346428 (National Center for Advancing Translational Sciences (NCATS), 2018)
Where “and” joins values, the source holds several entries; their conditions need not be identical. Equal values may be shown once. The whole screen tested about 48,000 compounds, of which about 1,200 (2.5%) were called active. Roughly 2% stayed inconclusive and do not appear here.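 The calls were made as follows: active = activation of at least 60% and not above a set upper limit (about 1 call in 100 departs from these limits); inconclusive = activation of 40% to 60%, or above that upper limit; inactive = activation under 40%.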 This is one part of the list.

molecular target: Probable G-protein coupled receptor 32 (Homo sapiens) (UniProt O75388); test: qHTS for Agonists of Human Resolvin D1 Receptor DRV1; conditions: CHO-K1 GPR32 beta-arrestin PathHunter luminescence, 90 min; at 76.9 µM; stronger effect = higher value; zero percent set by DMSO-only wells
Sequence of UniProt O75388 (O75388 whole entry, looked up, the tested form may be a part): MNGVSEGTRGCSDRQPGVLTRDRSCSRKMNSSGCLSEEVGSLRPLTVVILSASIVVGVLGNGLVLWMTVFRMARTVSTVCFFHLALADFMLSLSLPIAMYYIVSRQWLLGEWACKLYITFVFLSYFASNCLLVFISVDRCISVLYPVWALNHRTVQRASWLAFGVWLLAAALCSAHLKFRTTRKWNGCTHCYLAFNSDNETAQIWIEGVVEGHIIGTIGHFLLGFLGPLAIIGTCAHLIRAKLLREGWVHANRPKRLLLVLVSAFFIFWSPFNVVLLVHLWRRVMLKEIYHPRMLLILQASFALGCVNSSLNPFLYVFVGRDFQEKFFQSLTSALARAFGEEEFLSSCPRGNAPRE
How it was run: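 PathHunter enzyme-fragment complementation, CHO-K1 GPR32 stable line; 2,500 cells/well, overnight attach; cpd 90 min 37 °C 5% CO2; detection reagent 1 h RT; chemiluminescence. DMSO = EC0.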

Row | SMILES | activation
1 | CCOc1ccc(NC(=O)N2CCN(c3ccc(Cl)c(Cl)c3)CC2)cc1 | inactive: 5.26%
2 | CC(=O)O[C@]1(C(C)=O)CC[C@H]2[C@@H]3C=C(Cl)C4=CC(=O)CC[C@]4(C)[C@H]3CC[C@@]21C | inactive: -30.2%
3 | COc1ccc2cc3c(N)nn(C(=O)c4ccccc4Cl)c3nc2c1 | inactive: 16%
4 | COc1ccc(-c2noc(CN(C(=O)C(C)Oc3ccc(C)cc3)C(C)C)n2)cc1 (configuration not stated) | inactive: -19.5%
5 | CCn1cc(C(=O)NCCc2ccc(OC)c(OC)c2)c(=O)c2cc(S(=O)(=O)N(C)C3CCCCC3)ccc21 | inactive: -31.6%
6 | CC(C)Oc1ccc(C(=O)N(Cc2ccc(N(C)C)cc2)C2CCS(=O)(=O)C2)cc1 (configuration not stated) | inactive: -26.6%
7 | CCCNC(=O)NS(=O)(=O)c1ccc(Cl)cc1 | inactive: -8.36% and inactive: 9.48%
8 | CCN(CC)C(C)CN1c2ccccc2Sc2ccccc21 (configuration not stated) | inactive: 21.5% and inactive: 45.8%
9 | CCc1ccc(NCc2cc3ccc(OC)cc3n(CC(=O)Nc3c(C)cc(C)cc3C)c2=O)cc1 | inactive: -20.3%
10 | CCOc1cccc(CNC(=O)c2ccc(N3CCCC3)c(NC(=O)NCc3ccccc3)c2)c1 | inactive: -28.7%
11 | Cc1ccccc1CNC(=O)CCS(=O)(=O)c1cc2c3c(c1)CCN3C(=O)CC2 | inactive: -23.2%
12 | COc1ccc(Cl)cc1NC(=O)Cn1ccn(-c2cc(C)cc(C)c2)c(=O)c1=O | inactive: -11.6%
13 | Cn1nnc2c(N3CCN(c4ccc(F)cc4)CC3)ncnc21 | inactive: 8.4%
14 | Cc1ccc(Nc2sc(C(=O)c3ccccc3)c(N)c2S(=O)(=O)c2ccccc2)cc1Cl | inactive: -43%
15 | Cc1ccc(N2CCN(C(=O)c3cc4cc5ccc(C)cc5nc4s3)CC2C)cc1 (configuration not stated) | inactive: 8.26%
16 | COc1ccccc1N1CCN(C(=O)CCS(=O)(=O)c2ccc3c(c2)oc(=O)n3C)CC1 | inactive: -23.7%
17 | CCc1ccc(CNC(=O)Cn2nc(-c3ccc(C)cc3)ccc2=O)cc1 | inactive: -18.7%
18 | COc1ccc(C)cc1NC(=O)CC1NCCNC1=O (configuration not stated) | inactive: -8.51%
19 | Cc1cc(C)c2c(=O)cc(C(=O)Nc3sc4c(c3C(=O)NCC3CCCO3)CCCC4)oc2c1 (configuration not stated) | inactive: 8.85%
20 | Cc1ccc(Nc2nnc(-c3ccc(C)c(S(=O)(=O)N4CCOCC4)c3)c3ccccc23)cc1 | inactive: -7.83%
21 | COCCNC(=O)c1ccc2nc(Cc3ccccc3)oc2c1 | inactive: -3.81%
22 | CC(C)N(CCCNC(=O)Cn1ncc2c([nH]c3ccccc32)c1=O)Cc1ccccc1 | inactive: -0.721%
23 | CCC(=O)C1=C(c2ccc(OC)c(OC)c2)N(C(=O)CC)n2c(nnc2-c2ccc(C)cc2)S1 | inactive: -22.2%
24 | COc1ccc(-c2nc(CS(=O)(=O)CC(=O)NCCc3ccc(C)cc3)c(C)o2)cc1 | inactive: -5.92%
25 | CCOC(=O)c1ccc(NC(=O)CSc2nc3ccccc3c(=O)n2CCC(=O)NC2CCCCC2)cc1 | inactive: -0.748%
26 | CC(=O)c1ccc(N2CCN(c3ccc4cc(S(=O)(=O)N5CCCCC5)ccc4n3)CC2)cc1 | inactive: -17.1%

Row | SMILES | activation
27 | CC(=O)c1cc(-c2ccccc2)n(CC(=O)Nc2ccc(C)c(C)c2)c1C | inactive: -1.15%
28 | COc1ccc(OC)c(CNS(=O)(=O)c2ccc(-c3coc(C)n3)cc2)c1 | inactive: 16.5%
29 | CCOc1ccc(CNC(=O)CS(=O)(=O)c2cccc3nsnc23)cc1 | inactive: 14.3%
30 | COc1ccccc1-c1nc(SCC(=O)NCc2ccccc2)c2c(=O)n(C)c(=O)n(C)c2n1 | inactive: 9.84%
31 | COc1ccccc1-c1noc(-c2ccc(NC3CCCC3)c([N+](=O)[O-])c2)n1 | inactive: 11.7%
32 | Cc1cc2nc(-c3ccc(NC(=O)c4ccccc4F)cc3)oc2cc1C | inactive: -18.3%
33 | Cc1ccc(C)c(NC(=O)C2CCCN(c3ncnc4onc(C)c34)C2)c1 (configuration not stated) | inactive: 1.14%
34 | COc1ccc(OC)c(C2=NS(=O)(=O)N(C)C(C(=O)Nc3ccc(F)cc3F)=C2)c1 | inactive: -14.9%
35 | O=C(CSc1cn(CC(=O)N2CCCCC2)c2ccccc12)Nc1ccccc1 | inactive: -9.07%
36 | N#Cc1nc(-c2ccc(COc3ccc(Cl)cc3)o2)oc1N1CCC(C(N)=O)CC1 | inactive: 37%
37 | O=C(Cn1c(=O)n(-c2ccccc2)c(=O)c2c3c(sc21)CCCC3)Nc1ccc(F)cc1F | inactive: -4.37%
38 | COc1ccc(OC)c(S(=O)(=O)NCCS(=O)(=O)N2CCN(c3ccccc3)CC2)c1 | inactive: 19%
39 | Cc1cc(=O)n(Cc2ccc(Cl)cc2)c2c1c(C)nn2-c1ccccc1 | inactive: -11.7%
40 | COc1cccc(CNC(=O)c2cccc(-n3c(C)nc4cccnc43)c2)c1OC | inactive: 9.01%
41 | CCc1ccccc1NC(=O)N1CCCn2nc(C)cc21 | inactive: -15%
42 | O=C(NCC(c1ccco1)S(=O)(=O)c1cccs1)c1ccc(F)c(F)c1 (configuration not stated) | inactive: -1.04%
43 | O=C(NCc1noc2ccccc12)N1CCN(c2ccccc2)CC1 | inactive: -14.8%
44 | CC1CCN(c2nn3c(=O)c(C(=O)NC(C)C)cnc3s2)CC1 | inactive: -0.841%
45 | Cc1nc(-c2ccccc2)sc1-c1ccc(SCC(=O)NCc2ccccc2Cl)nn1 | inactive: -14.8%
46 | Cc1nn(C)c2c1c(-c1ccccc1)cc(=O)n2CC(=O)NC(C)c1ccccc1 (configuration not stated) | inactive: -4.77%
47 | CCOc1ccc(-c2cc3nc(C4CCN(C(=O)OC(C)(C)C)CC4)c(C(=O)Nc4cc(OC)ccc4OC)cn3n2)cc1 | inactive: -8.13%
48 | CCN1CCOC(=O)C1CC(=O)Nc1ccc(Br)cc1 (configuration not stated) | active: 74.4%
49 | Cc1ccc(Cl)cc1NC(=O)c1sc(-n2nc(C)c(Cc3ccc4c(c3)OCO4)c2C)nc1C | inactive: 2.11%
50 | O=C(Cn1c(=O)n(Cc2ccccc2)c(=O)c2sc3ccccc3c21)Nc1ccccc1 | inactive: -8.64%
51 | CCCOc1ccc(C2c3c(-c4c(C)cc(C)cc4O)n[nH]c3C(=O)N2CCO)cc1 (configuration not stated) | inactive: 23.7%
52 | CCCCCn1c(CN2CCN(c3ccc(OC)cc3)CC2)nc2c1c(=O)[nH]c(=O)n2C | inactive: -11.5%
